Laboratory results reported in paper PMC9911399, “Two distinct binding modes provide the RNA-binding protein RbFox with extraordinary sequence specificity”.
Substitutions are numbered along the chain they refer to; changes in the protein carry UniProt numbers. This is one part of the list.

T1: RBFOX1 RRM (Homo sapiens, UniProt Q9NWB1 109-208)
T1 sequence: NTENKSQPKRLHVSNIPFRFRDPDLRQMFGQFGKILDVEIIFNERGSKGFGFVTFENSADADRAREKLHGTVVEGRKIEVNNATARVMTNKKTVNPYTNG

B1: UCUACAG (DNA:RNA)
RNA: GGGAGACCGGAAUUCAGAUUGUCCUCUACAGUUAAAUCCCGUCGUAGCCACCA
DNA 1: CAATCTGAATTCCGGTCTCCC
DNA 2: TGGTGGCTACGACGGGATT
B2: AUUGGAU (DNA:RNA)
RNA: B1 RNA with U25A, C26U, A28G, C29G, G31U
DNA 1: CAATCTGAATTCCGGTCTCCC
DNA 2: TGGTGGCTACGACGGGATT
B3: GCAGUAU (DNA:RNA)
RNA: B1 RNA with U25G, U27A, A28G, C29U, G31U
DNA 1: CAATCTGAATTCCGGTCTCCC
DNA 2: TGGTGGCTACGACGGGATT
B4: UUCGGAC (DNA:RNA)
RNA: B1 RNA with C26U, U27C, A28G, C29G, G31C
DNA 1: CAATCTGAATTCCGGTCTCCC
DNA 2: TGGTGGCTACGACGGGATT
B5: CACCGUG (DNA:RNA)
RNA: B1 RNA with U25C, C26A, U27C, A28C, C29G, A30U
DNA 1: CAATCTGAATTCCGGTCTCCC
DNA 2: TGGTGGCTACGACGGGATT
B6: UUAGGCA (DNA:RNA)
RNA: B1 RNA with C26U, U27A, A28G, C29G, A30C, G31A
DNA 1: CAATCTGAATTCCGGTCTCCC
DNA 2: TGGTGGCTACGACGGGATT
B7: CGAUCUU (DNA:RNA)
RNA: B1 RNA with U25C, C26G, U27A, A28U, A30U, G31U
DNA 1: CAATCTGAATTCCGGTCTCCC
DNA 2: TGGTGGCTACGACGGGATT
B8: GACGGGU (DNA:RNA)
RNA: GGGAGACCGGAAUUCAGAUUGUCCGACGGGUUUAAAUCCCGUCGUAGCCACCA
DNA 1: CAATCTGAATTCCGGTCTCCC
DNA 2: TGGTGGCTACGACGGGATT
B9: GGGAUGU (DNA:RNA)
RNA: B8 RNA with A26G, C27G, G28A, G29U
DNA 1: CAATCTGAATTCCGGTCTCCC
DNA 2: TGGTGGCTACGACGGGATT
B10: GGGAACU (DNA:RNA)
RNA: B8 RNA with A26G, C27G, G28A, G29A, G30C
DNA 1: CAATCTGAATTCCGGTCTCCC
DNA 2: TGGTGGCTACGACGGGATT
B11: CGGCCGC (DNA:RNA)
RNA: B8 RNA with G25C, A26G, C27G, G28C, G29C, U31C
DNA 1: CAATCTGAATTCCGGTCTCCC
DNA 2: TGGTGGCTACGACGGGATT
B12: CCCGCGG (DNA:RNA)
RNA: B8 RNA with G25C, A26C, G29C, U31G
DNA 1: CAATCTGAATTCCGGTCTCCC
DNA 2: TGGTGGCTACGACGGGATT
B13: CCUACCU (DNA:RNA)
RNA: B1 RNA with U25C, A30C, G31U
DNA 1: CAATCTGAATTCCGGTCTCCC
DNA 2: TGGTGGCTACGACGGGATT
B14: CACUGUU (DNA:RNA)
RNA: B8 RNA with G25C, G28U, G30U
DNA 1: CAATCTGAATTCCGGTCTCCC
DNA 2: TGGTGGCTACGACGGGATT
B15: UCACGUA (DNA:RNA)
RNA: B1 RNA with U27A, A28C, C29G, A30U, G31A
DNA 1: CAATCTGAATTCCGGTCTCCC
DNA 2: TGGTGGCTACGACGGGATT
B16: ACAGCGU (DNA:RNA)
RNA: B8 RNA with G25A, A26C, C27A, G29C
DNA 1: CAATCTGAATTCCGGTCTCCC
DNA 2: TGGTGGCTACGACGGGATT
B17: CAUUUAU (DNA:RNA)
RNA: B8 RNA with G25C, C27U, G28U, G29U, G30A
DNA 1: CAATCTGAATTCCGGTCTCCC
DNA 2: TGGTGGCTACGACGGGATT
B18: AAAUGCG (DNA:RNA)
RNA: B8 RNA with G25A, C27A, G28U, G30C, U31G
DNA 1: CAATCTGAATTCCGGTCTCCC
DNA 2: TGGTGGCTACGACGGGATT
B19: CUGGGGU (DNA:RNA)
RNA: B8 RNA with G25C, A26U, C27G
DNA 1: CAATCTGAATTCCGGTCTCCC
DNA 2: TGGTGGCTACGACGGGATT
B20: UAGAGCU (DNA:RNA)
RNA: B8 RNA with G25U, C27G, G28A, G30C
DNA 1: CAATCTGAATTCCGGTCTCCC
DNA 2: TGGTGGCTACGACGGGATT
B21: UCAGUCG (DNA:RNA)
RNA: B1 RNA with U27A, A28G, C29U, A30C
DNA 1: CAATCTGAATTCCGGTCTCCC
DNA 2: TGGTGGCTACGACGGGATT
B22: CAACUGU (DNA:RNA)
RNA: B8 RNA with G25C, C27A, G28C, G29U
DNA 1: CAATCTGAATTCCGGTCTCCC
DNA 2: TGGTGGCTACGACGGGATT
B23: AUCUAUG (DNA:RNA)
RNA: B8 RNA with G25A, A26U, G28U, G29A, G30U, U31G
DNA 1: CAATCTGAATTCCGGTCTCCC
DNA 2: TGGTGGCTACGACGGGATT
B24: AAACGAU (DNA:RNA)
RNA: B8 RNA with G25A, C27A, G28C, G30A
DNA 1: CAATCTGAATTCCGGTCTCCC
DNA 2: TGGTGGCTACGACGGGATT
B25: CUAACGU (DNA:RNA)
RNA: B8 RNA with G25C, A26U, C27A, G28A, G29C
DNA 1: CAATCTGAATTCCGGTCTCCC
DNA 2: TGGTGGCTACGACGGGATT
B26: UAAACCA (DNA:RNA)
RNA: B1 RNA with C26A, U27A, A30C, G31A
DNA 1: CAATCTGAATTCCGGTCTCCC
DNA 2: TGGTGGCTACGACGGGATT
B27: UCAAAGC (DNA:RNA)
RNA: B1 RNA with U27A, C29A, A30G, G31C
DNA 1: CAATCTGAATTCCGGTCTCCC
DNA 2: TGGTGGCTACGACGGGATT
B28: UAUCUUG (DNA:RNA)
RNA: B1 RNA with C26A, A28C, C29U, A30U
DNA 1: CAATCTGAATTCCGGTCTCCC
DNA 2: TGGTGGCTACGACGGGATT
B29: UACGGGU (DNA:RNA)
RNA: B8 RNA with G25U
DNA 1: CAATCTGAATTCCGGTCTCCC
DNA 2: TGGTGGCTACGACGGGATT
B30: CAGGACA (DNA:RNA)
RNA: B8 RNA with G25C, C27G, G29A, G30C, U31A
DNA 1: CAATCTGAATTCCGGTCTCCC
DNA 2: TGGTGGCTACGACGGGATT
B31: CGGAAGG (DNA:RNA)
RNA: B1 RNA with U25C, C26G, U27G, C29A, A30G
DNA 1: CAATCTGAATTCCGGTCTCCC
DNA 2: TGGTGGCTACGACGGGATT

The binders below were run against T1, RBFOX1 RRM (assay: EMSA; HiTS-Eq, 1 nM pool, 10 min; buffer printed only for the single-RNA assays: 10 mM Tris pH 7.5, 150 mM NaCl, 3.4 mM EDTA, 0.001% NP-40, 30 C). Conditions: tags: His6 N-terminal (pET28a); label: 5' 32P.
Outline: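 Purified RbFox RRM (wild type or mutant) was equilibrated for 10 min in 50 µL with 1 nM of a 5′-radiolabelled pool of RNA with 7 randomized nucleotides, its flanks annealed to DNA oligonucleotides, across increasing protein concentrations. Free RNA was separated by 8% native PAGE, excised, reverse-transcribed, PCR-barcoded and sequenced on an Illumina HiSeq 2500. Relative association constants came from read-count changes of each variant against the control reaction, normalised to the cognate motif.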

Binder	binding signal
B1	0.00704 KA relative to UGCAUGU
B2	0.00616 KA relative to UGCAUGU
B3	0.0053 KA relative to UGCAUGU
B4	0.00324 KA relative to UGCAUGU
B5	0.0057 KA relative to UGCAUGU
B6	0.0138 KA relative to UGCAUGU
B7	0.00766 KA relative to UGCAUGU
B8	0.00737 KA relative to UGCAUGU
B9	0.048 KA relative to UGCAUGU
B10	0.0404 KA relative to UGCAUGU
B11	0.0167 KA relative to UGCAUGU
B12	0.0128 KA relative to UGCAUGU
B13	0.00351 KA relative to UGCAUGU
B14	0.00521 KA relative to UGCAUGU
B15	0.00715 KA relative to UGCAUGU
B16	0.00382 KA relative to UGCAUGU

Binder	binding signal
B17	0.00234 KA relative to UGCAUGU
B18	0.00906 KA relative to UGCAUGU
B19	0.018 KA relative to UGCAUGU
B20	0.0123 KA relative to UGCAUGU
B21	0.00991 KA relative to UGCAUGU
B22	0.00466 KA relative to UGCAUGU
B23	0.00462 KA relative to UGCAUGU
B24	0.00249 KA relative to UGCAUGU
B25	0.00747 KA relative to UGCAUGU
B26	0.0013 KA relative to UGCAUGU
B27	0.00363 KA relative to UGCAUGU
B28	0.0139 KA relative to UGCAUGU
B29	0.00441 KA relative to UGCAUGU
B30	0.00328 KA relative to UGCAUGU
B31	0.00994 KA relative to UGCAUGU
